Data taken from PubChem BioAssay AID463173 (ICCB-Longwood Screening Facility, Harvard Medical School, 2010).
Screen size: about 52,000 compounds; about 1,700 (3.3%) were called active. Cut-off read from the data, not from the text of the source: active = survival mostly below about 52% (no sharp cut-off); inactive = mostly above about 56%. This is one part of the list.

Each compound was assayed on Wild type (assay: S. aureus survival, RN4220 and DeltatarO strains – OD600, teichoic acid synthesis inhibitors, primary screen (AID 463173)). Details: S. aureus RN4220 wild type/DeltatarO growth, OD600, 18 h, stronger effect = lower value, screened at 18.75 µg/mL (by protocol).
For `Cc1ccc(NC(=O)CSc2nc3ccc(Br)cc3[nH]2)c(C)c1`, the survival was inactive: 67%. For `Cc1ccc(N2CC(C(=O)NCCS(=O)(=O)N3CCN(c4ccccc4F)CC3)CC2=O)cc1` (stereo not given), the survival was inactive: 99%. `Cc1nc2c3ccccc3nc(NNC(=O)CCC(=O)N3CCN(c4cccc(Cl)c4)CC3)n2n1` was tested, and the survival was inactive: 142%. With `CCOc1ccc(N(Cc2ccccc2)C(=O)c2nc(SCC)ncc2Cl)cc1` the survival was inactive: 115%. `Cc1cccc(NC(=O)CSc2nc3ccccc3nc2N2CCC(C)CC2)c1` was tested, and the survival was active: -9%. `O=C(COc1ccc(F)cc1)Nc1nnc(S(=O)(=O)N2CCc3ccccc32)s1` was tested, and the survival was inactive: 22%. `CN(C)CCN(C(=O)c1ccco1)c1nc2c(F)cc(F)cc2s1` was tested, and the survival was inactive: 64%. With `CC1CCN(C(=O)CSc2c3c(nc4ccc(Cl)cc24)CCCC3)CC1` the survival was active: -1%. In the case of `CCn1c(CNc2ccc(C)cc2)nnc1SCc1ccccc1`, the survival is reported as inactive: 126%. With `CC1=C(c2ccc(C(C)C)cc2)S(=O)(=O)NC1=NCc1ccccc1C` the survival was inactive: 82%. `O=C(Nc1ccc(OC(F)(F)F)cc1)C1CCN(S(=O)(=O)c2ccc3[nH]c(=O)ccc3c2)CC1` was tested, and the survival was inactive: 90%. In the case of `Cc1ccc(Nc2cc(C)nc(-n3nc(C)cc3C)n2)cc1`, the survival is reported as inactive: 111%. With `O=C(NC1CCCCC1)c1ccc2c(c1)N(Cc1cccc(F)c1)C(=O)c1ccccc1S2` the survival was inactive: 79%. `Cn1cnc(S(=O)(=O)N2CCC(C(=O)Nc3ccc(F)cc3F)CC2)c1` was tested, and the survival was inactive: 81%. `CCOc1ccc(CNC(=O)c2ccc3c(c2)sc2nc(-c4ccccc4)cn23)cc1` was tested, and the survival was inactive: 84%. For `Cc1ccc(-c2noc(CNC(=O)COc3cc(C)c(Br)c(C)c3)n2)cc1`, the survival was inactive: 89%. In the case of `CCOCCc1nnc(NC(=O)C(=O)c2cc(C)n(-c3cccc(C)c3)c2C)s1`, the survival is reported as inactive: 83%. In the case of `O=C(NC1CCCCC1)c1ccc2c(c1)sc1nc(-c3ccc(F)cc3)cn12`, the survival is reported as inactive: 92%. `Cc1ccc(-n2nc(C(=O)N3CCN(c4ccc(F)cc4)CC3)c(=O)n(C)c2=O)cc1` was tested, and the survival was inactive: 76%. With `COc1ccc2nc(NC(=O)c3nc(S(=O)(=O)Cc4ccccc4F)ncc3Cl)sc2c1` the survival was inactive: 94%. With `c1ccc2c(c1)[nH]c1c(N3CCOCC3)ncnc12` the survival was inactive: 112%. In the case of `O=C(O)CCC(=O)Nc1ccccc1O`, the survival is reported as inactive: 102%. `COc1ccc(NCc2cc3cc4c(cc3n(CC(=O)Nc3cccc(F)c3)c2=O)OCO4)cc1` was tested, and the survival was inactive: 121%. `Cc1ccc(Cl)cc1-n1c(CCC(=O)O)ccc1-c1cccs1` was tested, and the survival was inactive: 64%. For `COc1cc(OC)c(NC(=O)Cn2c(=O)c(C(F)(F)F)nc3ccccc32)cc1Cl`, the survival was inactive: 53%. `CCc1cccc(NC(=O)Cn2c(=O)n(-c3ccccc3C)c(=O)c3c2c2cc(C)ccc2n3C)c1` was tested, and the survival was inactive: 80%. For `COC(=O)c1ccc(CSc2nc3c([nH]c4ccccc43)c(=O)n2-c2ccc(F)cc2)o1`, the survival was inactive: 66%. With `O=C(Cn1c(=O)n(-c2ccccc2)c(=O)c2ccc(C(=O)NCc3ccc4c(c3)OCO4)cc21)Nc1ccc(F)cc1` the survival was inactive: 73%. With `Clc1ccccc1N1CCN(Cc2nnc(-c3ccccc3)o2)CC1` the survival was inactive: 80%. In the case of `COc1ccc(CCCc2nnc(SCC(=O)Nc3cccc(C)c3)o2)cc1C`, the survival is reported as inactive: 88%. `O=C(c1ccccc1)N(C(=O)c1ccccc1)c1ccccn1` was tested, and the survival was inactive: 112%. `CCCCCC[N+]1(CCO)CCOCC1` was tested, and the survival was inactive: 118%. For `Cc1ccc(CNC(=O)c2ccc(CS(=O)(=O)Cc3ccc(F)cc3)o2)cc1`, the survival was inactive: 90%. In the case of `CCCCc1nn2c(=O)cc(COC(=O)c3cccc(NC(=O)c4cccc(Cl)c4)c3)nc2s1`, the survival is reported as inactive: 85%. For `CCOc1nc(-c2ccccc2)cc(-c2ccccc2)n1`, the survival was inactive: 125%. With `Cc1ccccc1CN1CCc2nc(N3CCN(c4ncccn4)CC3)ncc2C1` the survival was inactive: 75%. For `NC(=O)c1cc2c([nH]c1=O)CCCCCCCCCC2`, the survival was inactive: 120%. For `CCCCN(C)CCCNC(=O)Cn1ncc2c3ccccc3n(Cc3cccc(Cl)c3)c2c1=O`, the survival was inactive: 86%. For `Cc1cccc(N2CCN(S(=O)(=O)c3cn(C)c(C)n3)CC2)c1C`, the survival was active: -3%. In the case of `CCOc1ccccc1C(=O)Oc1c(S(=O)(=O)c2ccc(C)cc2)c(C)nn1-c1ccccc1`, the survival is reported as inactive: 63%. With `COc1cc(NC(=O)CSc2nc(-c3cccs3)cc(C(F)(F)F)n2)cc(OC)c1OC` the survival was inactive: 69%. For `COc1cccc(-n2c(SCC(=O)N3CCc4ccccc43)nc3c([nH]c4ccccc43)c2=O)c1`, the survival was inactive: 71%. With `COCCNc1ccc(-c2nc(-c3ccncc3)no2)cc1[N+](=O)[O-]` the survival was inactive: 92%. In the case of `Cc1cccc(CSc2nc3c(c(=O)[nH]2)CCC3)c1`, the survival is reported as inactive: 78%. For `O=C(Nc1ccc(F)cc1F)c1cccc2c1C(=O)N(C1CCCCC1)C2`, the survival was inactive: 94%. With `CCN(CC)CCNc1nc2c(c(=O)n(C)c(=O)n2C)n1CCc1ccccc1` the survival was inactive: 122%. With `COc1ccc(S(=O)(=O)NCc2cccn2Cc2cccc(C)c2)cc1Cl` the survival was inactive: 119%. `CCc1ccc(C2CC(=O)c3c([nH]c(C(=O)OC4CCC(C)CC4)c3C)C2)cc1` (stereo not given) was tested, and the survival was inactive: 91%. For `CNC(=O)c1ccc2nc(CCc3ccccc3)oc2c1`, the survival was inactive: 73%. `CCS(=O)(=O)N1CCc2cc(C(=O)N3CCN(c4ccc(OC)cc4)CC3)ccc21` was tested, and the survival was inactive: 78%. In the case of `COc1ccc(OC)c(S(=O)(=O)N2Cc3ccccc3CC2C(=O)Nc2ccc(C)cc2C)c1` (stereo not given), the survival is reported as inactive: 77%. `CCc1cccc(C)c1NC(=O)C(CC)n1nc(C)c2c(C)n(-c3ccccc3)nc2c1=O` (stereo not given) was tested, and the survival was inactive: 75%. In the case of `COc1ccc(-c2nc(SCC(=O)Nc3ccccc3)c(-c3ccc(F)cc3)[nH]2)cc1OC`, the survival is reported as inactive: 58%. `COc1ccc(-c2cc(C(F)(F)F)nc(SCC(=O)N3CCCCC3)n2)cc1OC` was tested, and the survival was inactive: 90%. For `CCOC(=O)c1cc(-c2ccc(OC)c(S(=O)(=O)NC3CCCCC3)c2)on1`, the survival was inactive: 71%. For `CCCCN(CC)CCCNC(=O)CN1C(=O)CSc2ccc(S(=O)(=O)N3CCOCC3)cc21`, the survival was inactive: 99%. `COc1ccccc1N(CC(=O)N1CCC(C)CC1)S(=O)(=O)c1ccc(C)cc1` was tested, and the survival was inactive: 126%. In the case of `COc1ccc(CCNC(=O)CN2C(=O)COc3ccc(C)cc32)cc1OC`, the survival is reported as inactive: 71%. For `CCN(C(=O)Cn1nc(Cc2ccncc2)c2ccccc2c1=O)c1cccc(Cl)c1`, the survival was inactive: 79%. For `Cn1c(=O)c2c(nc(SCC(=O)N3CCCC3)n2C)n(C)c1=O`, the survival was inactive: 107%. In the case of `Cc1cccc(Nc2nn3c(=O)c4cc5c(cc4nc3s2)OCO5)c1`, the survival is reported as inactive: 135%. With `COCCCNC(=O)c1c(-c2ccccc2)c(-c2ccccc2)nn(C)c1=O` the survival was inactive: 87%. For `O=C(Nc1ccc2nc3n(c(=O)c2c1)CCCCC3)C(=O)Nc1ccccc1F`, the survival was inactive: 69%. With `COc1cc(NC(=O)c2nn(C)c3c2CS(=O)(=O)c2ccccc2-3)cc(OC)c1` the survival was inactive: 78%. For `CCc1ccc(Cn2c(CNS(=O)(=O)c3ccc([N+](=O)[O-])cc3)nc3cccnc32)cc1`, the survival was active: 0%. In the case of `Cc1ccc(C(=O)NCc2ccc3c(c2)CCN3C(=O)c2ccc(C)cc2)cc1`, the survival is reported as inactive: 72%. In the case of `COCCNC(=O)c1ccc(-n2c(-c3ccccc3)cc3c2CCC(C)C3)cc1` (stereo not given), the survival is reported as inactive: 105%. In the case of `CCn1nc(C)c(CCN(C)C(=O)Nc2ccc(C)c(Cl)c2)c1C`, the survival is reported as inactive: 63%. `Cc1cc(Nc2cccc(Cl)c2)nc2ccc(NC(=O)Cc3ccc(Cl)cc3)cc12` was tested, and the survival was inactive: 79%. `CCN(CC)CCNC(=O)CN1C(=O)COc2ccc(S(=O)(=O)N3CCOCC3)cc21` was tested, and the survival was inactive: 82%. For `CCOC(=O)Cn1c(=O)n(CC2CCCO2)c2nc(-c3ccc(OCC)cc3)nc(C(N)=O)c21` (stereo not given), the survival was active: -4%. With `COc1cc(N2C(=O)CSC23C(=O)N(Cc2cccc(F)c2)c2ccccc23)cc(OC)c1OC` (stereo not given) the survival was inactive: 88%. With `COc1ccc(NC(=O)c2sc3nc4c(cc3c2N)CCCCCC4)c(OC)c1` the survival was inactive: 76%. For `CN(C)C(=O)N1CCN(S(=O)(=O)c2ccccc2)CC1`, the survival was inactive: 109%. With `COc1ccc(CCNC(=O)c2ccc3c(c2)CCN3S(=O)(=O)c2ccccc2)cc1OC` the survival was inactive: 103%. For `CCOc1ccccc1NC(=O)Cn1c(=O)n(Cc2ccccc2)c(=O)c2c1c1cc(C)ccc1n2C`, the survival was inactive: 72%. With `COc1ccccc1Nc1c2c(nc3ccc(NC(=O)c4ccc(OC)c(OC)c4)cc13)CCCC2` the survival was inactive: 68%. `N#Cc1cc(-c2ccc(Cl)cc2)no1` was tested, and the survival was inactive: 94%. With `Cc1ccc(-n2ncc(C(=O)NCc3ccccc3)c2C2CCN(C(=O)OC(C)(C)C)CC2)cc1` the survival was inactive: 69%. For `Cc1cc(=O)n2c(C(=O)Nc3ccc(Br)cc3)c(C(=O)Nc3ccccc3)sc2n1`, the survival was inactive: 93%. For `COc1ccccc1OCc1nnc(-c2ccccc2)o1`, the survival was inactive: 81%. In the case of `CCCCOC(=O)c1ccc(OC(=O)c2sc3ncn(Cc4ccccc4Cl)c(=O)c3c2C)cc1`, the survival is reported as inactive: 57%. With `CCN1CC2CCCC3(C1)C(=O)NC1(CCCCC1)N=C23` (stereo not given) the survival was inactive: 120%. For `CS(=O)c1nc(-c2cccs2)cc(-c2ccccc2)c1C#N` (stereo not given), the survival was inactive: 90%. In the case of `CCCc1nnc(SCC(=O)NC2CC2)n1CC`, the survival is reported as inactive: 95%. For `Cc1ccc(Cl)cc1Nc1sc(C(=O)c2ccc(F)cc2)c(N)c1S(C)(=O)=O`, the survival was inactive: 72%. With `COc1cccc(CNC(=O)Cc2csc3nc(-c4ccccc4)cn23)c1` the survival was inactive: 68%. With `CCOc1ccc(CNCCCSc2nnnn2C)cc1OC` the survival was inactive: 86%. `O=C(CSc1nc(=O)n(Cc2ccco2)c2c1CCC2)Nc1cccc(F)c1` was tested, and the survival was inactive: 72%. `CCOc1ccc(NC(=O)Cn2cc(C(=O)c3ccc(OC)cc3)c(=O)c3cc4c(cc32)OCO4)cc1` was tested, and the survival was inactive: 87%.
